# Measured values published in the supplement of paper PMC8728848.
# This is one part of the list.
# B1: Pwp4 (Candida glabrata) (protein)
# chain: MGSSHHHHHHSSGLVPRGSHMASVGNPITVSNVCSFPKNWHRTAGFRALTARLGIGIQSDSYKELLNYPGTFQLTTQQSSTTKPNFQISGLVGNIYGLTIVPSYLLVELTGYFVPPVSGEYTFSLEGSDDAAIIFIANPSTFKCGHVEDWPTAYDNDVTVTESIHATRTIYMIEGVAYPIRIAYYNGLSLGKLQASFTDPEGVKRVDWNGYIWRYDSCDTCSYV
# Columns and labels:
# Assay in all cases: glycan array binding signal (z-score within array); higher = stronger binding
# Settings in all cases: glycan notation: IUPAC condensed, linker removed
# [1] = biological target: Gal(b1-4)GlcNAc(b1-2)[Gal(b1-4)GlcNAc(b1-6)]Man(a1-6)[GlcNAc(b1-4)][Gal(b1-4)GlcNAc(b1-2)Man(a1-3)]Man(b1-4)GlcNAc(b1-4)GlcNAc
# Procedure, shortened: (§1)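 The binding signal is a Z-score computed within each array. Data were drawn from 3228 arrays in the Consortium for Functional Glycomics database, restricted to those with a known protein sequence. Scores were averaged over arrays of the same protein sequence at different concentrations or buffers, and over linkers, and negative values can be taken as non-binding.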
# [2] = biological target: Gal(b1-4)GlcNAc(b1-2)[Gal(b1-4)GlcNAc(b1-6)]Man(a1-6)[GlcNAc(b1-4)][Gal(b1-4)GlcNAc(b1-2)[Gal(b1-4)GlcNAc(b1-4)]Man(a1-3)]Man(b1-4)GlcNAc(b1-4)[Fuc(a1-6)]GlcNAc
# Procedure, shortened: as §1
# [3] = biological target: Gal(b1-4)GlcNAc(b1-3)Gal(b1-3)GalNAc
# Procedure, shortened: as §1
# [4] = biological target: Gal(b1-4)GlcNAc(b1-3)Gal(b1-3)GlcNAc
# Procedure, shortened: as §1
# [5] = biological target: Gal(b1-4)GlcNAc(b1-3)Gal(b1-4)Glc
# Procedure, shortened: as §1
# [6] = biological target: Gal(b1-4)GlcNAc(b1-3)Gal(b1-4)GlcNAc
# Procedure, shortened: as §1
# [7] = biological target: Gal(b1-4)GlcNAc(b1-3)Gal(b1-4)GlcNAc(b1-2)Man(a1-3)[Gal(b1-4)GlcNAc(b1-3)Gal(b1-4)GlcNAc(b1-2)Man(a1-6)]Man(b1-4)GlcNAc(b1-4)GlcNAc
# Procedure, shortened: as §1
# [8] = biological target: Gal(b1-4)GlcNAc(b1-3)Gal(b1-4)GlcNAc(b1-2)Man(a1-3)[Gal(b1-4)GlcNAc(b1-3)Gal(b1-4)GlcNAc(b1-2)Man(a1-6)]Man(b1-4)GlcNAc(b1-4)[Fuc(a1-6)]GlcNAc
# Procedure, shortened: as §1
# [9] = biological target: Gal(b1-4)GlcNAc(b1-3)Gal(b1-4)GlcNAc(b1-2)[Gal(b1-4)GlcNAc(b1-3)Gal(b1-4)GlcNAc(b1-6)]Man(a1-6)[Gal(b1-4)GlcNAc(b1-3)Gal(b1-4)GlcNAc(b1-2)Man(a1-3)]Man(b1-4)GlcNAc(b1-4)GlcNAc
# Procedure, shortened: as §1
# [10] = biological target: Gal(b1-4)GlcNAc(b1-3)Gal(b1-4)GlcNAc(b1-2)[Gal(b1-4)GlcNAc(b1-3)Gal(b1-4)GlcNAc(b1-6)]Man(a1-6)[Gal(b1-4)GlcNAc(b1-3)Gal(b1-4)GlcNAc(b1-2)Man(a1-3)]Man(b1-4)GlcNAc(b1-4)[Fuc(a1-6)]GlcNAc
# Procedure, shortened: as §1
# [11] = biological target: Gal(b1-4)GlcNAc(b1-3)Gal(b1-4)GlcNAc(b1-3)Gal(b1-4)GlcNAc
# Procedure, shortened: as §1
# [12] = biological target: Gal(b1-4)GlcNAc(b1-3)Gal(b1-4)GlcNAc(b1-3)Gal(b1-4)GlcNAc(b1-2)Man(a1-3)[Gal(b1-4)GlcNAc(b1-3)Gal(b1-4)GlcNAc(b1-3)Gal(b1-4)GlcNAc(b1-2)Man(a1-6)]Man(b1-4)GlcNAc(b1-4)GlcNAc
# Procedure, shortened: as §1
# [13] = biological target: Gal(b1-4)GlcNAc(b1-3)Gal(b1-4)GlcNAc(b1-3)Gal(b1-4)GlcNAc(b1-2)Man(a1-3)[Gal(b1-4)GlcNAc(b1-3)Gal(b1-4)GlcNAc(b1-3)Gal(b1-4)GlcNAc(b1-2)Man(a1-6)]Man(b1-4)GlcNAc(b1-4)[Fuc(a1-6)]GlcNAc
# Procedure, shortened: as §1
# [14] = biological target: Gal(b1-4)GlcNAc(b1-3)Gal(b1-4)GlcNAc(b1-3)Gal(b1-4)GlcNAc(b1-2)[Gal(b1-4)GlcNAc(b1-3)Gal(b1-4)GlcNAc(b1-3)Gal(b1-4)GlcNAc(b1-6)]Man(a1-6)[Gal(b1-4)GlcNAc(b1-3)Gal(b1-4)GlcNAc(b1-3)Gal(b1-4)GlcNAc(b1-2)Man(a1-3)]Man(b1-4)GlcNAc(b1-4)[Fuc(a1-6)]GlcNAc
# Procedure, shortened: as §1
# [15] = biological target: Gal(b1-4)GlcNAc(b1-3)Gal(b1-4)GlcNAc(b1-3)Gal(b1-4)GlcNAc(b1-3)Gal(b1-4)GlcNAc(b1-2)Man(a1-3)[Gal(b1-4)GlcNAc(b1-3)Gal(b1-4)GlcNAc(b1-3)Gal(b1-4)GlcNAc(b1-3)Gal(b1-4)GlcNAc(b1-2)Man(a1-6)]Man(b1-4)GlcNAc(b1-4)GlcNAc
# Procedure, shortened: as §1
# [16] = biological target: Gal(b1-4)GlcNAc(b1-3)Gal(b1-4)GlcNAc(b1-3)Gal(b1-4)GlcNAc(b1-3)Gal(b1-4)GlcNAc(b1-2)Man(a1-3)[Gal(b1-4)GlcNAc(b1-3)Gal(b1-4)GlcNAc(b1-3)Gal(b1-4)GlcNAc(b1-3)Gal(b1-4)GlcNAc(b1-2)Man(a1-6)]Man(b1-4)GlcNAc(b1-4)[Fuc(a1-6)]GlcNAc
# Procedure, shortened: as §1
# [17] = biological target: Gal(b1-4)GlcNAc(b1-3)Gal(b1-4)GlcNAc(b1-3)Gal(b1-4)GlcNAc(b1-3)Gal(b1-4)GlcNAc(b1-2)[Gal(b1-4)GlcNAc(b1-3)Gal(b1-4)GlcNAc(b1-3)Gal(b1-4)GlcNAc(b1-3)Gal(b1-4)GlcNAc(b1-6)]Man(a1-6)[Gal(b1-4)GlcNAc(b1-3)Gal(b1-4)GlcNAc(b1-3)Gal(b1-4)GlcNAc(b1-3)Gal(b1-4)GlcNAc(b1-2)Man(a1-3)]Man(b1-4)GlcNAc(b1-4)[Fuc(a1-6)]GlcNAc
# Procedure, shortened: as §1
# [18] = biological target: Gal(b1-4)GlcNAc(b1-3)Gal(b1-4)GlcNAc(b1-3)Gal(b1-4)GlcNAc(b1-3)Gal(b1-4)GlcNAc(b1-3)Gal(b1-4)GlcNAc(b1-2)Man(a1-3)[Gal(b1-4)GlcNAc(b1-3)Gal(b1-4)GlcNAc(b1-3)Gal(b1-4)GlcNAc(b1-3)Gal(b1-4)GlcNAc(b1-3)Gal(b1-4)GlcNAc(b1-2)Man(a1-6)]Man(b1-4)GlcNAc(b1-4)GlcNAc
# Procedure, shortened: as §1
# [19] = biological target: Gal(b1-4)GlcNAc(b1-3)Gal(b1-4)GlcNAc(b1-3)Gal(b1-4)GlcNAc(b1-3)Gal(b1-4)GlcNAc(b1-3)Gal(b1-4)GlcNAc(b1-2)Man(a1-3)[Gal(b1-4)GlcNAc(b1-3)Gal(b1-4)GlcNAc(b1-3)Gal(b1-4)GlcNAc(b1-3)Gal(b1-4)GlcNAc(b1-3)Gal(b1-4)GlcNAc(b1-2)Man(a1-6)]Man(b1-4)GlcNAc(b1-4)[Fuc(a1-6)]GlcNAc
# Procedure, shortened: as §1
# [20] = biological target: Gal(b1-4)GlcNAc(b1-3)Gal(b1-4)GlcNAc(b1-3)Gal(b1-4)GlcNAc(b1-3)Gal(b1-4)GlcNAc(b1-3)Gal(b1-4)GlcNAc(b1-2)[Gal(b1-4)GlcNAc(b1-3)Gal(b1-4)GlcNAc(b1-3)Gal(b1-4)GlcNAc(b1-3)Gal(b1-4)GlcNAc(b1-3)Gal(b1-4)GlcNAc(b1-6)]Man(a1-6)[Gal(b1-4)GlcNAc(b1-3)Gal(b1-4)GlcNAc(b1-3)Gal(b1-4)GlcNAc(b1-3)Gal(b1-4)GlcNAc(b1-3)Gal(b1-4)GlcNAc(b1-2)Man(a1-3)]Man(b1-4)GlcNAc(b1-4)[Fuc(a1-6)]GlcNAc
# Procedure, shortened: as §1
# [21] = biological target: Gal(b1-4)GlcNAc(b1-3)Gal(b1-4)GlcNAc(b1-3)Gal(b1-4)GlcNAc(b1-3)Gal(b1-4)GlcNAc(b1-3)Gal(b1-4)GlcNAc(b1-3)Gal(b1-4)GlcNAc(b1-2)Man(a1-3)[Gal(b1-4)GlcNAc(b1-3)Gal(b1-4)GlcNAc(b1-3)Gal(b1-4)GlcNAc(b1-3)Gal(b1-4)GlcNAc(b1-3)Gal(b1-4)GlcNAc(b1-3)Gal(b1-4)GlcNAc(b1-2)Man(a1-6)]Man(b1-4)GlcNAc(b1-4)GlcNAc
# Procedure, shortened: as §1
# [22] = biological target: Gal(b1-4)GlcNAc(b1-3)Gal(b1-4)GlcNAc(b1-3)GalNAc
# Procedure, shortened: as §1
# [23] = biological target: Gal(b1-4)GlcNAc(b1-3)Gal(b1-4)GlcNAc(b1-3)[Gal(b1-4)GlcNAc(b1-3)Gal(b1-4)GlcNAc(b1-6)]GalNAc
# Procedure, shortened: as §1
binder,measurement,setting,value
B1,glycan array binding signal (z-score),[1],-0.051
same,glycan array binding signal (z-score),[2],-0.565
same,glycan array binding signal (z-score),[3],-0.549
same,glycan array binding signal (z-score),[4],-0.108
same,glycan array binding signal (z-score),[5],-0.365
same,glycan array binding signal (z-score),[6],0.144
same,glycan array binding signal (z-score),[7],0.09
same,glycan array binding signal (z-score),[8],0.584
same,glycan array binding signal (z-score),[9],0.642
same,glycan array binding signal (z-score),[10],2.34
same,glycan array binding signal (z-score),[11],-0.028
same,glycan array binding signal (z-score),[12],1.08
same,glycan array binding signal (z-score),[13],0.226
same,glycan array binding signal (z-score),[14],-0.489
same,glycan array binding signal (z-score),[15],-0.018
same,glycan array binding signal (z-score),[16],0.224
same,glycan array binding signal (z-score),[17],2.42
same,glycan array binding signal (z-score),[18],0.024
same,glycan array binding signal (z-score),[19],0.13
same,glycan array binding signal (z-score),[20],0.773
same,glycan array binding signal (z-score),[21],3.83
same,glycan array binding signal (z-score),[22],0.024
same,glycan array binding signal (z-score),[23],0.004
